These are yes or no findings as the source states them, for the method shown. Some entries that bind do so weakly or less than the wild type.
T1: ARF5 (Arabidopsis thaliana) (UniProt P93024)
T1 sequence: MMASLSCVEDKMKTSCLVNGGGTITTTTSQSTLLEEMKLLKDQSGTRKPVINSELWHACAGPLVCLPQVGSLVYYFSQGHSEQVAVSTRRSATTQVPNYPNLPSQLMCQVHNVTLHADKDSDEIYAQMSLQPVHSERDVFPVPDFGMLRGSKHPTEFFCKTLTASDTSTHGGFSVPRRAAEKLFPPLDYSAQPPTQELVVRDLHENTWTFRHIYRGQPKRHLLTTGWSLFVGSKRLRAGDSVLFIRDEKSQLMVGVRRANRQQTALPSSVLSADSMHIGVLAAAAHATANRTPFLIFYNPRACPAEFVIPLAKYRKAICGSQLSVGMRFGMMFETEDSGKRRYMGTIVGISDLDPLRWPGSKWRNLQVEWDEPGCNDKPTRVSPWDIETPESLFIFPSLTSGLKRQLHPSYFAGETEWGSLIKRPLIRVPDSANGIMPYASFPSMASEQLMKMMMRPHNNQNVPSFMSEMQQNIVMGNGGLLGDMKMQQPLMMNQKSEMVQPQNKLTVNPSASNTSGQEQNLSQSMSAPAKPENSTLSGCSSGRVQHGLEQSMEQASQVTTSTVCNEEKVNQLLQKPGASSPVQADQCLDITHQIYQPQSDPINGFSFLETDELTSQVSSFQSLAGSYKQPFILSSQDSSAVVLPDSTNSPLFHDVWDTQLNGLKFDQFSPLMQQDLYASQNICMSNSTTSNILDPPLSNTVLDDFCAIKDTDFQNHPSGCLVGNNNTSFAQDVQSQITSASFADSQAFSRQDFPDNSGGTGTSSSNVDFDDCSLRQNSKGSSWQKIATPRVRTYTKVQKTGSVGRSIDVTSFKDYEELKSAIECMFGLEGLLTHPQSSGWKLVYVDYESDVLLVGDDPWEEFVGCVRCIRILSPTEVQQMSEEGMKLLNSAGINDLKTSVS

T2: ARF6 (Arabidopsis thaliana) (UniProt Q9ZTX8)
T2 sequence: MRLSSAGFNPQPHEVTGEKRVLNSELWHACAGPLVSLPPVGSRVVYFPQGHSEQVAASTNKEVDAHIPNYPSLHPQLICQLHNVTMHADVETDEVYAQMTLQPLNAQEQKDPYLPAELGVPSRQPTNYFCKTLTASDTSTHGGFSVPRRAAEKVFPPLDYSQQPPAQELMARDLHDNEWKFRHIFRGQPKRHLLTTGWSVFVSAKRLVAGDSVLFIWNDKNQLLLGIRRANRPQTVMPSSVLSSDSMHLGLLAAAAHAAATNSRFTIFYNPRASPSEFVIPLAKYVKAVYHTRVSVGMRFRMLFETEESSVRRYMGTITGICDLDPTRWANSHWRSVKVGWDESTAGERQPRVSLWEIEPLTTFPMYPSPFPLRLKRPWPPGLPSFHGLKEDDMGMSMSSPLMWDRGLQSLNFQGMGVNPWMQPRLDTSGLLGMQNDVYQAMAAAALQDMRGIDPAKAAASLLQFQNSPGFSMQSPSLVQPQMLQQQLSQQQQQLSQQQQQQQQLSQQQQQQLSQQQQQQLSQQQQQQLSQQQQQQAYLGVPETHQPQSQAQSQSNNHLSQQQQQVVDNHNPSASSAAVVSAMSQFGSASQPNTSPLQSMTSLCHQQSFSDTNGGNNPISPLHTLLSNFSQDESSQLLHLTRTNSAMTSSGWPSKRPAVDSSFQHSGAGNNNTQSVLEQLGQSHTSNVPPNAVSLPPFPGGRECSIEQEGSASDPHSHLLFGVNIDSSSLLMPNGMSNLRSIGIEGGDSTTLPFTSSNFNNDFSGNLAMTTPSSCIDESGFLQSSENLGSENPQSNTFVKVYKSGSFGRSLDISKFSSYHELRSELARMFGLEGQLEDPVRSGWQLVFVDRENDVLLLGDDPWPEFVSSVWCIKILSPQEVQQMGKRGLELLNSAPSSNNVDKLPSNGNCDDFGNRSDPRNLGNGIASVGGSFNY

T3: ARF11 (Arabidopsis thaliana) (UniProt Q9ZPY6)
T3 sequence: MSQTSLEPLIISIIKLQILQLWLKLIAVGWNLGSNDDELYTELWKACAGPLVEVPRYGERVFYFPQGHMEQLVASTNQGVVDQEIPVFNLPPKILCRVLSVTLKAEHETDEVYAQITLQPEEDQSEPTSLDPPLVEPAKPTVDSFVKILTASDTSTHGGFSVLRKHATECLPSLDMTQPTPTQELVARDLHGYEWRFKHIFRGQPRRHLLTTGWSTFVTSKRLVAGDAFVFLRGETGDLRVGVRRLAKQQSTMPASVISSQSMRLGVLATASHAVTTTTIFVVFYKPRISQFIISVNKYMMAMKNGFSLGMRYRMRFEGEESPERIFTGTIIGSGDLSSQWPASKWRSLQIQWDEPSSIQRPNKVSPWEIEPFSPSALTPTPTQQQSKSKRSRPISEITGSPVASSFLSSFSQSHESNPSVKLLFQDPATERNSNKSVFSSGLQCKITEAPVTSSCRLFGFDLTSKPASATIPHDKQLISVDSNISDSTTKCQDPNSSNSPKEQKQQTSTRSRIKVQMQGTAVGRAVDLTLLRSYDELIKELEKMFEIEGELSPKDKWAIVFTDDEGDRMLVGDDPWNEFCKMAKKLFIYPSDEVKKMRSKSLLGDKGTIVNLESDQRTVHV


How the values were obtained:
Experiment in all cases: two-hybrid; S. cerevisiae AH109 co-transformed with pGBKT7-ARF (bait) and pGADT7-Aux/IAA (prey); growth on SD/-Ade-His-Leu-Trp against SD/-Leu/-Trp; at least 10 independent colonies; serial dilutions for strength
[1] = target: T1, ARF5 (Arabidopsis thaliana)
[2] = target: T2, ARF6 (Arabidopsis thaliana)
[3] = target: T3, ARF11 (Arabidopsis thaliana)

Binder | binding [1] | binding [2] | binding [3]
Aux/IAA32 (protein, UniProt Q8RYC6 1-191) MDPNTPADFFKGSSKFHTYYSQTKKGGGVIDLGLSLRTIQHETYLPPARMIGLDGYGELIDWSQPSYNSITQLKSEDTGHQRLAQGYYNNEGESRGKYAYVKVNLDGLVVGRKVCLVDQGAYATLALQLNDMFGMQTVSGLRLFQTESEFSLVYRDREGIWRNVGDVPWKEFVESVDRMRIARRNDALLPF | binds | binds weakly | no binding
Aux/IAA1 (protein, UniProt P49677 1-168) MEVTNGLNLKDTELRLGLPGAQEEQQLELSCVRSNNKRKNNDSTEESAPPPAKTQIVGWPPVRSNRKNNNNKNVSYVKVSMDGAPYLRKIDLKMYKNYPELLKALENMFKFTVGEYSEREGYKGSGFVPTYEDKDGDWMLVGDVPWDMFSSSCQKLRIMKGSEAPTAL | binds | binds | no binding
Aux/IAA6 (protein, UniProt Q38824 1-189) MAKEGLALEITELRLGLPGDNYSEISVCGSSKKKKRVLSDMMTSSALDTENENSVVSSVEDESLPVVKSQAVGWPPVCSYRRKKNNEEASKAIGYVKVSMDGVPYMRKIDLGSSNSYINLVTVLENLFGCLGIGVAKEGKKCEYIIIYEDKDRDWMLVGDVPWQMFKESCKRLRIVKRSDATGFGLQQD | binds | binds | no binding
Aux/IAA8 (protein, UniProt Q38826 1-321) MSYRLLSVDKDELVTSPCLKERNYLGLSDCSSVDSSTIPNVVGKSNLNFKATELRLGLPESQSPERETDFGLLSPRTPDEKLLFPLLPSKDNGSATTGHKNVVSGNKRGFADTWDEFSGVKGSVRPGGGINMMLSPKVKDVSKSIQEERSHAKGGLNNAPAAKAQVVGWPPIRSYRKNTMASSTSKNTDEVDGKPGLGVLFVKVSMDGAPYLRKVDLRTYTSYQQLSSALEKMFSCFTLGQCGLHGAQGRERMSEIKLKDLLHGSEFVLTYEDKDGDWMLVGDVPWEIFTETCQKLKIMKGSDSIGLAPGAVEKSKNKERV | binds | binds | –
Aux/IAA9 (protein, UniProt Q38827 1-338) MSPEEELQSNVSVASSSPTSNCISRNTLGGLKEHNYLGLSDCSSVGSSTLSPLAEDDKATISLKATELTLGLPGSQSPARDTELNLLSPAKLDEKPFFPLLPSKDEICSSSQKNNASGNKRGFSDTMDQFAEAKSSVYTEKNWMFPEAAATQSVTKKDVPQNIPKGQSSTTNNSSSPPAAKAQIVGWPPVRSYRKNTLATTCKNSDEVDGRPGSGALFVKVSMDGAPYLRKVDLRSYTNYGELSSALEKMFTTFTLGQCGSNGAAGKDMLSETKLKDLLNGKDYVLTYEDKDGDWMLVGDVPWEMFIDVCKKLKIMKGCDAIGLAAAPRAMEKSKMRA | binds | binds | no binding
Aux/IAA10 (protein, UniProt Q38828 1-261) MNGLQEVCSSSGSVMIGLPAEEDENAAHSSEDSSCPDESVSETELDLALGLSIGRRKVRSSLSSSSSSLTRESGTKRSADSSPAAASNATRQVAVGWPPLRTYRINSLVNQAKSLATEGGLSSGIQKETTKSVVVAAKNDDACFIKSSRTSMLVKVTMDGVIIGRKVDLNALDSYAALEKTLDLMFFQIPSPVTRSNTQGYKTIKETCTSKLLDGSSEYIITYQDKDGDWMLVGDVPWQMFLGSVTRLRIMKTSIGAGVGK | binds | binds | no binding
Aux/IAA11 (protein, UniProt Q38829 1-246) MEGGSASGSASALSNDENLVVSCEDSSSPIGNELELGLTLSLGRKGYRDCRVYADDSSSSSSSSSLSRASVIAGIKRTADSMAATSGQVVGWPPIRTYRMNSMVNQAKASATEDPNLEISQAVNKNRSDSTKMRNSMFVKVTMDGIPIGRKIDLNAHKCYESLSNTLEEMFLKPKLGSRTLETDGHMETPVKILPDGSSGLVLTYEDKEGDWMLVGDVPWGMFIGSVRRLRIMKTSEATGKAQMIL | binds | binds | no binding
Aux/IAA12 (protein, UniProt Q38830 1-239) MRGVSELEVGKSNLPAESELELGLGLSLGGGAWKERGRILTAKDFPSVGSKRSAESSSHQGASPPRSSQVVGWPPIGLHRMNSLVNNQAMKAARAEEGDGEKKVVKNDELKDVSMKVNPKVQGLGFVKVNMDGVGIGRKVDMRAHSSYENLAQTLEEMFFGMTGTTCREKVKPLRLLDGSSDFVLTYEDKEGDWMLVGDVPWRMFINSVKRLRIMGTSEASGLAPRRQEQKDRQRNNPV | binds | binds | no binding
Aux/IAA13 (protein, UniProt Q38831 1-247) MITELEMGKGESELELGLGLSLGGGTAAKIGKSGGGGAWGERGRLLTAKDFPSVGSKRAADSASHAGSSPPRSSSQVVGWPPIGSHRMNSLVNNQATKSAREEEEAGKKKVKDDEPKDVTKKVNGKVQVGFIKVNMDGVAIGRKVDLNAHSSYENLAQTLEDMFFRTNPGTVGLTSQFTKPLRLLDGSSEFVLTYEDKEGDWMLVGDVPWRMFINSVKRLRVMKTSEANGLAARNQEPNERQRKQPV | binds | binds | no binding
Aux/IAA15 (protein, UniProt Q9C966 1-179) MSPEEYVRVWPDSGDLGGTELTLALPGTPTNASEGPKKFGNKRRFLETVDLKLGEAHENNYISSMVTNDQLVGWPPVATARKTVRRKYVKVALDGAAYLRKVDLGMYDCYGQLFTALENMFQGIITICRVTELERKGEFVATYEDKDGDLMLVGDVPWMMFVESCKRMRLMKTGDAIGL | binds | binds | no binding
Aux/IAA2 (protein, UniProt P49678 1-174) MAYEKVNELNLKDTELCLGLPGRTEKIKEEQEVSCVKSNNKRLFEETRDEEESTPPTKTQIVGWPPVRSSRKNNNSVSYVKVSMDGAPYLRKIDLKTYKNYPELLKALENMFKVMIGEYCEREGYKGSGFVPTYEDKDGDWMLVGDVPWDMFSSSCKRLRIMKGSDAPALDSSL | binds | binds | no binding

From publication PMC4274898
